Experimental data reported in patent US20110077263A1, “Methods and Compositions of Toll-Like Receptor (TLR) Agonists” (priority 2009, published 2011).

System: LC exposed to HPV16 L1L2 VLP
Test: In vitro transwell chemotaxis assay to CCL21 (Poly-ICR)
Type: cell-based, human
Settings: 5 μg/mL Poly-ICR or 20 μg/mL CD40L, 48 h; 250 ng/mL CCL21, 4 h; versus untreated LC or LC exposed to HPV16 alone

B1: CD40L: a protein involved in licensing antigen presenting cells to activate CD8+ T cells (protein, UniProt P29965 113-261, looked up)
CD40 ligand, soluble form: MQKGDQNPQIAAHVISEASSKTTSVLQWAEKGYYTMSNNLVTLENGKQLTVKRQGLYYIYAQVTFCSNREASSQAPFIASLCLKSPGRFERILLRAANTHSSAKPCGQQSIHLGGVFELQPGASVFVNVTDPSQVSHGTGFTSFGLLKL
migration capacity to CCL21: enhanced migration to CCL21
